Data as given in PubChem BioAssay AID720708 (National Center for Advancing Translational Sciences (NCATS), 2013).
About 660 (0.18%) of roughly 360,000 compounds were called active. This list was built around the results that the source calls inconclusive (neither active nor inactive); the mix of calls is not that of the screen. Calls follow the shape of the dose curve; as a rule, active = well fitted inhibition curve with a large enough effect; inconclusive = small, poorly fitted or top-dose-only effect; inactive = no such curve, though single readings can be large or run the other way. No potency is given beside an inconclusive call; the fits are too rough.

molecular target: Rap guanine nucleotide exchange factor 4 (Homo sapiens) (UniProt Q8WZA2); assay: qHTS for Antagonist of cAMP-regulated guanine nucleotide exchange factor 2 (EPAC2): primary screen; details: EPAC2 GEF exchange of Rap1B-BODIPY-GDP, fluorescence; activity, negative = inhibition: at 114 µM (top of the series) unless noted; also: nearly all actives have a fitted effect of over 45% in size
% is scaled to controls: 0 for no effect and ±100 for the full control effect; potency is read from the fitted curve at half-maximal effect; tags tell the direction and shape of the fitted curve.

UniProt Q8WZA2, sequence (Q8WZA2 whole entry, looked up): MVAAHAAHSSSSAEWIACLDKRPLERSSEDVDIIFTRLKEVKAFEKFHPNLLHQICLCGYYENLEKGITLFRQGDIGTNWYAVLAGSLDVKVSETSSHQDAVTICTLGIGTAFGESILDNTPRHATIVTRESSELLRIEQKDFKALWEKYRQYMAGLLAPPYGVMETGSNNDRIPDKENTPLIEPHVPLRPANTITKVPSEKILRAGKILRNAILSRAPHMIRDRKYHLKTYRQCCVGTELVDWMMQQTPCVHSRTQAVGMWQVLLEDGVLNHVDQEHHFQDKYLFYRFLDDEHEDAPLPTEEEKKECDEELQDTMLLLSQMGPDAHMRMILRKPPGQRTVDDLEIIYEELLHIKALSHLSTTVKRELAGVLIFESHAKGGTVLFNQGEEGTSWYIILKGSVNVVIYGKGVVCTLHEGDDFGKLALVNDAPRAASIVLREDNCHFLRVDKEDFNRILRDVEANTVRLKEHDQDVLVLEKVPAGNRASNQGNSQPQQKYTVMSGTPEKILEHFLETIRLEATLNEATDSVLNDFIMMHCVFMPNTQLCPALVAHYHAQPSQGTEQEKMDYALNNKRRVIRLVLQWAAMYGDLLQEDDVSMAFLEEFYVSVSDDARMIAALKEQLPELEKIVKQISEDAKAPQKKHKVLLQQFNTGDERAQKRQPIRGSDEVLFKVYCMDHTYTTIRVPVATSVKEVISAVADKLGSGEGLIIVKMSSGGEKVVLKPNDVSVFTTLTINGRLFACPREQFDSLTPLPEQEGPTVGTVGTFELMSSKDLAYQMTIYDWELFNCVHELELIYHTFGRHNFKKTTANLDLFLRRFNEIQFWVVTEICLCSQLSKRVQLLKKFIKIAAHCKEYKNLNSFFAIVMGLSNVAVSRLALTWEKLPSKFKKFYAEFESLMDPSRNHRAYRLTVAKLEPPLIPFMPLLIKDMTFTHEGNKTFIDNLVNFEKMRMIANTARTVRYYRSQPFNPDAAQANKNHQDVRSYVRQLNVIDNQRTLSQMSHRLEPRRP

| SMILES | Potency | activity, negative = inhibition |
| --- | --- | --- |
| CCC(c1nnnn1C1CCCCC1)N(Cc1ccco1)Cc1cc2ccc(OC)cc2[nH]c1=O (centres undefined) | inconclusive [inhibitor, partial curve] |  |
| O=C(N/N=C\c1ccc(COc2ccc([N+](=O)[O-])cc2)o1)c1cccc(Cl)c1 |  | inactive: -2.72% |
| Cc1nc(N2CCN(C(=O)c3cccs3)CC2)c2c3c(sc2n1)CCCC3 | inconclusive [inhibitor, partial curve, poor fit] |  |
| Cc1ccc(F)cc1NC(=O)CCC(=O)c1cccs1 |  | inactive: 5.53% |
| N#C/C(C(=O)Nc1ccc(Cl)cc1)=C(/S)Nc1ccccc1 | inconclusive [inhibitor, partial curve] |  |
| CC1(C(=O)NCc2ccc(C(F)(F)F)cc2)CCN1Cc1ccc(-c2ccccc2)o1 (centres undefined) | inconclusive [inhibitor, partial curve] |  |
| O=C(O)CCCN1C(=O)/C(=C\C(Cl)=C\c2ccccc2)SC1=S | inconclusive [inhibitor, single point] |  |
| Cc1ccc(C)c(OCC(=O)NCC2COc3ccccc3O2)c1 (centres undefined) | inconclusive [inhibitor, single point] |  |
| COc1cccc2cc(C(C)N(CCCN3CCOCC3)C(=S)Nc3c(C)cccc3C)oc12 (centres undefined) | inconclusive [inhibitor, partial curve] |  |
| CCCCN(CCCNc1ncnc2nc[nH]c12)c1ccccc1 | inconclusive [inhibitor, full curve] |  |
| C=Cc1ccc(Cn2c(C)c(C(=O)NCc3cccc([N+](=O)[O-])c3)sc2=O)cc1 |  | inactive: 2.92% |
| CN1/C(=C/C=C/c2n(C)c3cc([N+](=O)[O-])c([N+](=O)[O-])cc3[n+]2C)C(C)(C)c2ccccc21 | inconclusive [inhibitor, partial curve] |  |
| COc1cc(OC)c(C(=O)C=Cc2ccc(OC)c(OC)c2)c(OC)c1 | inconclusive [inhibitor, partial curve] |  |
| COc1cccc(Cn2c(=O)c3ccccc3n3nc(C)cc23)c1 | active: 50.1 µM |  |
| O=C(C1=C(O)C(=O)N(CC2CCCO2)C1c1cccc(Cl)c1)c1ccco1 (centres undefined) |  | inactive: -6.69% |
| O=C(CSc1nnc(SCc2ccc(Cl)cc2)s1)N/N=C/c1ccc(C(=O)O)cc1 | active: 44.7 µM |  |
| CCOC(=O)C1=C(N)Oc2c(oc(CO)cc2=O)C1c1ccc(Cl)cc1 (centres undefined) | inconclusive [inhibitor, partial curve] |  |
| Nc1nc(Br)c2c(F)cccc2c1-c1ccc(Cl)cc1 |  | inactive: -19% |
| Cc1cccc(Oc2c(C=O)c3ccccc3n2C)c1 | inconclusive [inhibitor, partial curve] |  |
| CCN(CC)S(=O)(=O)c1ccc(OC)c(NC(=O)c2cccc(C)c2[N+](=O)[O-])c1 | inconclusive [inhibitor, single point] |  |
| CCCS(=O)(=O)N1CCN(Cc2ccccc2C(F)(F)F)CC1 |  | inactive: 5.65% |
| O=C(Nc1cccc(F)c1)N1CCC(c2ccccc2)CC1 | inconclusive [inhibitor, single point] |  |

| SMILES | Potency | activity, negative = inhibition |
| --- | --- | --- |
| CC(C)CNc1oc(-c2ccccc2Cl)nc1C#N | inconclusive [inhibitor, partial curve] |  |
| Clc1ccc(C2Nc3cccc4cccc(c34)N2)cc1 | inconclusive [inhibitor, partial curve] |  |
| CC(C)(C)C(=O)Nc1ccc2oc(-c3cc(F)c(F)cc3Cl)nc2c1 |  | inconclusive: -16.2% [inhibitor] |
| O=C(CSc1nc2nc[nH]c2c(=O)[nH]1)NC1CCCCC1 |  | inactive: 2.18% |
| COc1ccc(C(=O)c2ccccc2)cc1CN1CCOCC1 | inconclusive [inhibitor, full curve, poor fit] |  |
| Cc1cc(C)cc(N(C(=O)c2cc3ccccc3oc2=O)C2C=CS(=O)(=O)C2)c1 (centres undefined) | inconclusive [inhibitor, single point] |  |
| COc1ccc(S(=O)(=O)N2CCCCC2)cc1C(C)C | inconclusive [inhibitor, partial curve] |  |
| CCCN(CCC)S(=O)(=O)c1ccc(NC(=O)Cc2cccs2)cc1 |  | inactive: -13.1% |
| O=C(Nc1cccc2cccnc12)c1ccc2sc([C@@H]3O[C@H](CO)[C@H](O)[C@H](O)[C@H]3O)nc2c1 |  | inactive: -2.72% |
| COc1cc2c(cc1OC)C(c1cccs1)N(C(=O)C(C)C)CC2 (centres undefined) | inconclusive [inhibitor, partial curve] |  |
| CCN(C(=O)c1cccc(Br)c1)c1ccccc1 | inconclusive [inhibitor, partial curve] |  |
| Cc1c(C(=O)N2CCCC2)oc2ccc(Br)cc12 | inconclusive [inhibitor, partial curve] |  |
| O=C(Cn1ccnc1[N+](=O)[O-])N(CCO)CCO |  | inactive: -0.794% |
| FC(F)Oc1ccc(C2N=C(c3ccccc3)NO2)cc1 (centres undefined) |  | inactive: -8.02% |
| Cc1nn(Cc2c(F)cccc2Cl)c(=O)c2ccccc12 | inconclusive [inhibitor, partial curve] |  |
| COc1ccc(C(=O)NC(=S)N2CCN(c3ccccc3OC)CC2)cc1 | inconclusive [inhibitor, full curve, poor fit] |  |
| COc1ccc(/C=C/CN2CCN(Cc3ccccc3)C(CCO)C2)cc1 (centres undefined) | inconclusive [inhibitor, full curve] |  |
| O=C1c2ccccc2NC(c2ccc(Br)s2)N1O (centres undefined) | inconclusive [inhibitor, single point] |  |
| CN(Cc1cn(Cc2ccc(C(F)(F)F)cc2)nn1)C1CN(Cc2cn(Cc3ccc(C(F)(F)F)cc3)nn2)S(=O)(=O)C1 (centres undefined) | inconclusive [inhibitor, full curve, poor fit] |  |
| Cc1ccc(Cc2c(-c3cccc(Br)c3)nc3ccc(Br)cn23)cc1 | inconclusive [inhibitor, single point] |  |
| O=c1c2c(c(-c3ccccc3)nn1Cc1ccccc1)CCCC2 | inconclusive [inhibitor, partial curve] |  |
| COc1ccc(OC)c(-c2csc(NC(=O)CN3C(=O)NC4(CCCC4)C3=O)n2)c1 | inconclusive [inhibitor, single point] |  |
